Test results from patent publication US20260216365A1, “ANTIBODY-DRUG CONJUGATES AGAINST THE RECEPTOR TYROSINE KINASE EPHA5” (Rutgers, The State University of New Jersey, priority 2021, published 2026).

Assays:
H522-derived xenograft = H522-derived xenograft model of human lung cancer; settings: ADC 10 mg/kg i.v. weekly, 3 doses; for tumor response: VH5Vk3 ADC: first study, n=10
[1] = test system: H522, H460, A549 and H1299 cells; test: Incucyte cytotoxicity, cell confluence over time; type: cell-based, human
A549-derived xenograft = A549-derived xenograft model of human lung cancer; settings: for change in body weight, before first dose versus termination: ADC 10 mg/kg i.v.
[2] = test system: triple-negative invasive ductal carcinoma breast tumor PDX; test: Patient-derived xenograft (PDX) of triple-negative invasive ductal carcinoma of the breast (Example 4); type: in vivo, mouse; settings: 5 doses of 10 mg/kg every 7 days; control tumors reached endpoints within 16 days
H460-derived xenograft = H460-derived xenograft model of human lung cancer; settings: ADC 10 mg/kg i.v. every 5 days, 3 doses; for number of tumors with full regression: n=9 (MMAE ADC), n=8 (SN-38 ADC)
PDX TM00096 (BR085F) = test: PDX model TM00096 of triple negative breast cancer; type: in vivo, mouse; settings: for change in body weight before and after treatment: 10 mg/kg weekly, 5 doses (ADC1, ADC2) or 4 doses (ADC3, ADC4), here ADC2 = VH4Vk3-ThioBridge-VCP-MMAE; for weight of removed tumors compared to PBS: 4 weekly doses 10 mg/kg; for tumor volume response: 4 weekly doses 10 mg/kg tail vein, ADC3 = VH5Vk3-, ADC4 = VH4Vk3-ThioBridge-VCP-(SN-38)2
[3] = ADC 10 mg/kg i.v. weekly, 3 doses, ADC group n=5

Molecule | change in body weight, before first dose versus termination (H522-derived xenograft) | tumor response (H522-derived xenograft) | ADC-induced cell death (decrease of cell confluence) ([1]; EphA5 expression H522 (++++)>H460 (+++)>A549 (++)=H1299 (++)) | change in body weight, before first dose versus termination (A549-derived xenograft) | number of tumors with full regression (A549-derived xenograft; [3]) | number of tumors with partial regression (A549-derived xenograft; [3]) | time for which partial regression was sustained (entirety of the study) (A549-derived xenograft; mouse 4) | tumor growth [2] | change in body weight, before first dose versus termination (H460-derived xenograft) | number of tumors with full regression (H460-derived xenograft) | ADC-induced cell death (decrease of cell confluence) [1] | change in body weight before and after treatment (PDX TM00096 (BR085F)) | weight of removed tumors compared to PBS (PDX TM00096 (BR085F)) | tumor volume response (PDX TM00096 (BR085F)) | tumor response (A549-derived xenograft; ADC 10 mg/kg i.v. weekly, 3 doses) | day until which partial regressions were observed (A549-derived xenograft; ADC 10 mg/kg weekly, days 1-20, tumors then progressed until day 20) | number of tumors with partial regression (H460-derived xenograft; n=9)
VH4Vk3-ThioBridge®-VCP-MMAE: VH4Vk3 antibody, ThioBridge disulfide rebridging, Val-Cit-PAB linker, MMAE payload, DAR 4; called ADC2 only in Example 5 (conjugate) heavy: EVQLVESGGGLVQPGGSLKLSCAASGFTFSTFGIHWVRQAPGKGLEWVAYISGASTTIYYADTVKGRFTISRDNSKNTLYLQMNSLRAEDTAVYYCARYGTSFPYGLDYWGQGTLVTVSSASTKGPSVFPLAPSSKSTSGGTAALGCLVKDYFPEPVTVSWNSGALTSGVHTFPAVLQSSGLYSLSSVVTVPSSSLGTQTYICNVNHKPSNTKVDKRV[letters of human IgG1 Fc left out] light: DIVMTQSPDSLAVSLGERATINCKASQSVDYDGDSYMNWYQQKPGKAPKLLIYGASNLESGIPDRFSGSGSGTDFTLTISRLEPEDAAVYYCQQSNEDPFTFGQGTKLEIKRTVAAPSVFIFPPSDEQLKSGTASVVCLLNNFYPREAKVQWKVDNALQSGNSQESVTEQDSKDSTYSLSSTLTLSKADYEKHKVYACEVTHQGLSSPVTKSFNRGEC | no significant changes in body weight | Full regression was observed for all ADC-treated tumors | increasing amounts of ADC induced cell death which is dependent on the levels of expression of the target EphA5 | no significant changes in body weight | 4 | One | 32 days | little measurable tumor growth | no changes in body weight | 2 |  |  |  |  |  |  | 
VH4Vk3-ThioBridge®-(VCP-SN-38)2 (conjugate) heavy: EVQLVESGGGLVQPGGSLKLSCAASGFTFSTFGIHWVRQAPGKGLEWVAYISGASTTIYYADTVKGRFTISRDNSKNTLYLQMNSLRAEDTAVYYCARYGTSFPYGLDYWGQGTLVTVSSASTKGPSVFPLAPSSKSTSGGTAALGCLVKDYFPEPVTVSWNSGALTSGVHTFPAVLQSSGLYSLSSVVTVPSSSLGTQTYICNVNHKPSNTKVDKRV[letters of human IgG1 Fc left out] light: DIVMTQSPDSLAVSLGERATINCKASQSVDYDGDSYMNWYQQKPGKAPKLLIYGASNLESGIPDRFSGSGSGTDFTLTISRLEPEDAAVYYCQQSNEDPFTFGQGTKLEIKRTVAAPSVFIFPPSDEQLKSGTASVVCLLNNFYPREAKVQWKVDNALQSGNSQESVTEQDSKDSTYSLSSTLTLSKADYEKHKVYACEVTHQGLSSPVTKSFNRGEC | no significant changes in body weight | Full regression was observed for all ADC-treated tumors |  | no significant changes in body weight |  |  |  |  | no changes in body weight | 1 | increasing amounts of ADC induced cell death which is dependent on the levels of expression of the target EphA5 | no significant changes in body weight | no significant reduction in weight as compared to placebo | delayed tumor growth followed by rapid re-growth and early termination due to tumor burden |  |  | 
VH5Vk3-ThioBridge®-(VCP-SN-38)2 (conjugate) heavy: EVQLVESGGGLVQPGGSLKLSCAASGFTFSTFGIHWVRQAPGKGLEWVAYISGASTTIYYADSVKGRFTISRDNSKNTLYLQMNSLRAEDTAVYYCARYGTSFPYGLDYWGQGTLVTVSSASTKGPSVFPLAPSSKSTSGGTAALGCLVKDYFPEPVTVSWNSGALTSGVHTFPAVLQSSGLYSLSSVVTVPSSSLGTQTYICNVNHKPSNTKVDKRV[letters of human IgG1 Fc left out] light: DIVMTQSPDSLAVSLGERATINCKASQSVDYDGDSYMNWYQQKPGKAPKLLIYGASNLESGIPDRFSGSGSGTDFTLTISRLEPEDAAVYYCQQSNEDPFTFGQGTKLEIKRTVAAPSVFIFPPSDEQLKSGTASVVCLLNNFYPREAKVQWKVDNALQSGNSQESVTEQDSKDSTYSLSSTLTLSKADYEKHKVYACEVTHQGLSSPVTKSFNRGEC |  |  |  | No significant differences in the body weights |  |  |  |  | no significant changes in body weight |  | increasing amounts of ADC induced cell death which is dependent on the levels of expression of the target EphA5 | no significant changes in body weight | slightly reduced in weight compared to the PBS control group | delayed tumor growth followed by rapid re-growth and early termination due to tumor burden | Partial regressions | 14 days | 7

Like-named read-outs stand apart in the source and are kept apart here.
